From the supplement of paper PMC11741623
The list shows a part of the results. Interaction screen of human proteins with wild-type SARS-CoV-2 proteins by split-DHFR complementation in yeast, 1 µg/mL methotrexate. Value = fitness of the pair (three or more lineages) minus that of the viral protein without a human partner, on a scale set by negative (0) and fused positive (1) controls, mean of up to three cultures; higher = more likely to interact. Active = false discovery rate below 0.05 (one-sided t-test) in at least one culture. Nearly all pairs are not hits, and differences among them are mostly noise (correlation between cultures about 0.3); most hits were seen in one culture only. Human sequences are the Swiss-Prot entries looked up by gene name; the clone may be another isoform. NSP2 values were corrected by the authors for a growth advantage. Listed are human proteins with a hit and a random twelfth of the others.

What was measured:
Experiment in all cases: yeast fitness gain over the viral ORF with no human partner (scaled fitness); higher = more likely to interact
SARS-CoV-2 M = biological target: SARS-CoV-2 M
Method: (§1)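 Split mouse DHFR complementation in pooled diploid yeast: human ORFeome clones carry one fragment and viral ORFs the other; barcoded lineages compete in 1 µg/mL methotrexate and fitness is read by barcode sequencing in up to three cultures.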

SARS-CoV-2 NSP1 = biological target: SARS-CoV-2 NSP1
Method: as §1

SARS-CoV-2 NSP10 = biological target: SARS-CoV-2 NSP10
Method: as §1

SARS-CoV-2 NSP12 = biological target: SARS-CoV-2 NSP12
Method: as §1

SARS-CoV-2 NSP13 = biological target: SARS-CoV-2 NSP13
Method: as §1

SARS-CoV-2 NSP14 = biological target: SARS-CoV-2 NSP14
Method: as §1

SARS-CoV-2 NSP15 = biological target: SARS-CoV-2 NSP15
Method: as §1

SARS-CoV-2 NSP16 = biological target: SARS-CoV-2 NSP16
Method: as §1

SARS-CoV-2 NSP2 = biological target: SARS-CoV-2 NSP2
Method: as §1

SARS-CoV-2 NSP5 = biological target: SARS-CoV-2 NSP5
Method: as §1

SARS-CoV-2 NSP6 = biological target: SARS-CoV-2 NSP6
Method: as §1

SARS-CoV-2 NSP7 = biological target: SARS-CoV-2 NSP7
Method: as §1

SARS-CoV-2 NSP8 = biological target: SARS-CoV-2 NSP8
Method: as §1

SARS-CoV-2 NSP9 = biological target: SARS-CoV-2 NSP9
Method: as §1

SARS-CoV-2 ORF10 = biological target: SARS-CoV-2 ORF10
Method: as §1

SARS-CoV-2 ORF3A = biological target: SARS-CoV-2 ORF3A
Method: as §1

SARS-CoV-2 ORF3B = biological target: SARS-CoV-2 ORF3B
Method: as §1

SARS-CoV-2 ORF6 = biological target: SARS-CoV-2 ORF6
Method: as §1

SARS-CoV-2 ORF7A = biological target: SARS-CoV-2 ORF7A
Method: as §1

SARS-CoV-2 ORF7B = biological target: SARS-CoV-2 ORF7B
Method: as §1

SARS-CoV-2 ORF8 = biological target: SARS-CoV-2 ORF8
Method: as §1

SARS-CoV-2 ORF9B = biological target: SARS-CoV-2 ORF9B
Method: as §1

[1] = biological target: SARS-CoV-2 ORF9Bwu (the 73-codon ORF)
Method: as §1

SARS-CoV-2 S = biological target: SARS-CoV-2 S
Method: as §1

SARS-CoV-2 NSP4 = biological target: SARS-CoV-2 NSP4
Method: as §1

SARS-CoV-2 N = biological target: SARS-CoV-2 N
Method: as §1

Measured: yeast fitness gain

B1: SCNN1D, P51172 (protein)
chain: MRAVLSQKTTPLPRYLWPGHLSGPRRLTWSWCSDHRTPTCRELGSPHPTPCTGPARGWPRRGGGPCGFTSAGHVLCGYPLCLLSGPIQGCGTGLGDSSMAFLSRTSPVAAASFQSRQEARGSILLQSCQLPPQWLSTEAWTGEWKQPHGGALTSRSPGPVAPQRPCHLKGWQHRPTQHNAACKQGQAAAQTPPRPGPPSAPPPPPKEGHQEGLVELPASFRELLTFFCTNATIHGAIRLVCSRGNRLKTTSWGLLSLGALVALCWQLGLLFERHWHRPVLMAVSVHSERKLLPLVTLCDGNPRRPSPVLRHLELLDEFARENIDSLYNVNLSKGRAALSATVPRHEPPFHLDREIRLQRLSHSGSRVRVGFRLCNSTGGDCFYRGYTSGVAAVQDWYHFHYVDILALLPAAWEDSHGSQDGHFVLSCSYDGLDCQARQFRTFHHPTYGSCYTVDGVWTAQRPGITHGVGLVLRVEQQPHLPLLSTLAGIRVMVHGRNHTPFLGHHSFSVRPGTEATISIREDEVHRLGSPYGHCTAGGEGVEVELLHNTSYTRQACLVSCFQQLMVETCSCGYYLHPLPAGAEYCSSARHPAWGHCFYRLYQDLETHRLPCTSRCPRPCRESAFKLSTGTSRWPSAKSAGWTLATLGEQGLPHQSHRQRSSLAKINIVYQELNYRSVEEAPVYSVPQLLSAMGSLCSLWFGASVLSLLELLELLLDASALTLVLGGRRLRRAWFSWPRASPASGASSIKPEASQMPPPAGGTSDDPEPSGPHLPRVMLPGVLAGVSAEESWAGPQPLETLDT
inactive: SARS-CoV-2 M 0.0565 | SARS-CoV-2 NSP1 = -0.0304 | SARS-CoV-2 NSP10 = -0.0301 | SARS-CoV-2 NSP12 = -0.0146 | SARS-CoV-2 NSP13 = -0.0086 | SARS-CoV-2 NSP14 = -0.524 | SARS-CoV-2 NSP15 = -0.245 | SARS-CoV-2 NSP16 = 0.0516 | SARS-CoV-2 NSP2 = -0.13 | SARS-CoV-2 NSP5 = -0.0383 | SARS-CoV-2 NSP6 = -0.104 | SARS-CoV-2 NSP7 = -0.0757 | SARS-CoV-2 NSP8 = -0.0821 | SARS-CoV-2 NSP9 = -0.183 | SARS-CoV-2 ORF10 = 0.0558 | SARS-CoV-2 ORF3A -0.226 | SARS-CoV-2 ORF3B -0.134 | SARS-CoV-2 ORF6 = -0.0122 | SARS-CoV-2 ORF7A -0.0816 | SARS-CoV-2 ORF7B 0.0288 | SARS-CoV-2 ORF8 = 0.0627 | SARS-CoV-2 ORF9B 0.0148 | [1] -0.0171 | SARS-CoV-2 S -0.0286

B2: SERP2, Q8N6R1 (protein)
chain: MVAKQRIRMANEKHSKNITQRGNVAKTLRPQEEKYPVGPWLLALFVFVVCGSAIFQIIQSIRMGM
inactive: SARS-CoV-2 M 0.0451 | SARS-CoV-2 NSP1 = 0.02 | SARS-CoV-2 NSP10 = 0.0527 | SARS-CoV-2 NSP12 = 0.0145 | SARS-CoV-2 NSP13 = -0.0248 | SARS-CoV-2 NSP15 = -0.0432 | SARS-CoV-2 NSP2 = -0.143 | SARS-CoV-2 NSP5 = -0.118 | SARS-CoV-2 NSP6 = -0.152 | SARS-CoV-2 NSP7 = -0.166 | SARS-CoV-2 NSP8 = 0.0479 | SARS-CoV-2 NSP9 = -0.0319 | SARS-CoV-2 ORF10 = -0.0955 | SARS-CoV-2 ORF3B 0.0489 | SARS-CoV-2 ORF6 = 0.0174 | SARS-CoV-2 ORF7A -0.00754 | SARS-CoV-2 ORF7B 0.0254 | SARS-CoV-2 ORF8 = 0.0556 | SARS-CoV-2 ORF9B 0.0116 | [1] -0.101 | SARS-CoV-2 S -0.147

B3: SFTPC, P11686 (protein)
chain: MDVGSKEVLMESPPDYSAAPRGRFGIPCCPVHLKRLLIVVVVVVLIVVVIVGALLMGLHMSQKHTEMVLEMSIGAPEAQQRLALSEHLVTTATFSIGSTGLVVYDYQQLLIAYKPAPGTCCYIMKIAPESIPSLEALTRKVHNFQMECSLQAKPAVPTSKLGQAEGRDAGSAPSGGDPAFLGMAVSTLCGEVPLYYI
inactive: SARS-CoV-2 M 0.0447 | SARS-CoV-2 NSP1 = 0.0743 | SARS-CoV-2 NSP12 = -0.0481 | SARS-CoV-2 NSP13 = 0.000775 | SARS-CoV-2 NSP2 = -0.119 | SARS-CoV-2 NSP4 = 0.0302 | SARS-CoV-2 NSP5 = -0.0112 | SARS-CoV-2 NSP7 = 0.046 | SARS-CoV-2 NSP8 = -0.0454 | SARS-CoV-2 ORF3B 0.0357 | SARS-CoV-2 ORF6 = 0.0874 | SARS-CoV-2 ORF7A 0.0239 | SARS-CoV-2 ORF7B -0.0595 | SARS-CoV-2 ORF8 = -0.0113 | SARS-CoV-2 ORF9B 0.0979

B4: SH3GL3, Q99963 (protein)
chain: MSVAGLKKQFHKASQLFSEKISGAEGTKLDDEFLDMERKIDVTNKVVAEILSKTTEYLQPNPAYRAKLGMLNTVSKIRGQVKTTGYPQTEGLLGDCMLKYGKELGEDSTFGNALIEVGESMKLMAEVKDSLDINVKQTFIDPLQLLQDKDLKEIGHHLKKLEGRRLDYDYKKKRVGKIPDEEVRQAVEKFEESKELAERSMFNFLENDVEQVSQLAVFIEAALDYHRQSTEILQELQSKLQMRISAASSVPRREYKPRPVKRSSSELNGVSTTSVVKTTGSNIPMDQPCCRGLYDFEPENQGELGFKEGDIITLTNQIDENWYEGMIHGESGFFPINYVEVIVPLPQ
inactive: SARS-CoV-2 M 0.101 | SARS-CoV-2 N -0.172 | SARS-CoV-2 NSP1 = 0.0822 | SARS-CoV-2 NSP10 = 0.0122 | SARS-CoV-2 NSP12 = -0.026 | SARS-CoV-2 NSP13 = 0.116 | SARS-CoV-2 NSP14 = 0.0155 | SARS-CoV-2 NSP16 = 0.0381 | SARS-CoV-2 NSP2 = -0.0887 | SARS-CoV-2 NSP4 = 0.0484 | SARS-CoV-2 NSP5 = 0.0103 | SARS-CoV-2 NSP6 = 0.0873 | SARS-CoV-2 NSP7 = -0.017 | SARS-CoV-2 NSP8 = 0.0153 | SARS-CoV-2 NSP9 = -0.0307 | SARS-CoV-2 ORF10 = 0.0297 | SARS-CoV-2 ORF3B -0.0241 | SARS-CoV-2 ORF6 = 0.0312 | SARS-CoV-2 ORF7A 0.0934 | SARS-CoV-2 ORF7B 0.0851 | SARS-CoV-2 ORF8 = -0.0857 | SARS-CoV-2 ORF9B 0.0276 | SARS-CoV-2 S -0.00767
